B1: CPEB3 Ribozyme (parent)
chain: UAACAGGGGGCCACAGCAGAAGCGUUCACGUCGCAGCCCCUGUCAGAUUCUGGUGAAUCUGCGAAUUCUGCUGUAUAUCUC

Read counts are not given, so values of variants with three or more changes are uncertain.

This series covers variants of B1. Briefly: self-cleavage, relative activity (ratio to wild type); higher = more cleavage; in vitro, sequencing. The procedure, abridged: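 For each CPEB3 ribozyme variant, relative activity is its cleaved/total read fraction divided by the unmutated ribozyme's. Barcoded error-prone PCR libraries were transcribed by T7 RNA polymerase (5 hours, 37°C) and held in DNase I for 15 min before an EDTA stop, with cleavage occurring throughout. Template-switching reverse transcription and Illumina sequencing were used to read the RNAs. A 5-read minimum applied, and results are the mean of three batches.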
As for U60C A64G U67C, the self-cleavage came out at 0.38.

With U54A A56U A77U, the self-cleavage was determined as 0.99.

As to C59A U60A U80A, the self-cleavage is 0.23.

On to U58C A64G C81U, for which the self-cleavage is 0.42.

Regarding U54A U67C U74C, the self-cleavage is 0.51.

On to U54A U66C U72A, for which the self-cleavage stood at 0.78.

Take U54A A65U U80C: the self-cleavage was determined as 0.18.

Consider U60C U69A U80C, for which the self-cleavage was determined as 0.27.

As to U54A U60C A64C, the self-cleavage is 0.19.

In the case of A57G U58G A64G U76C A77G, the self-cleavage was 0.11.

As for U54C U60C C79A, the self-cleavage is 0.78.

With U60C U67A U74C, the self-cleavage was found to be 0.36.

Consider U54C A57G U66C, for which the self-cleavage was determined as 0.13.

Regarding U54G U67C U74A, the self-cleavage was found to be 0.32.

Consider U58C A64G U72C, for which the self-cleavage stood at 0.45.

As to U54G A56G A77G U78G, the self-cleavage was found to be 0.79.

On to U60C U69C U72A, for which the self-cleavage was 0.41.

For U60A U74C A75U, the self-cleavage stood at 0.92.

Consider A57U U72C U80C, for which the self-cleavage is 1.02.

Take U60C U69A U74C: the self-cleavage worked out at 0.

For the variant U58C U67A U69C, the self-cleavage came to 0.18.

With A57U U69A U78C, the self-cleavage was determined as 0.17.

As to G53A A65G U80C, the self-cleavage was 0.46.

Consider A57G U66C G73U, for which the self-cleavage came out at 0.43.

For U51G A56U A57G A64G, the self-cleavage worked out at 0.17.

Regarding A57G G61A U69G, the self-cleavage was determined as 0.42.

Consider U51C U60A U69C G70C U80C, for which the self-cleavage was found to be 0.41.

Turning to U54C U74A A77G, the self-cleavage came out at 1.35.

Consider U54G U60C U67C U69C A77U, for which the self-cleavage was 0.34.

On to A57G A65U U67C U74C U80A, for which the self-cleavage amounted to 0.25.

For U54C U58C U67C U80C, the self-cleavage came out at 0.42.

Take U51C U54C U58C U69A U72C U78C: the self-cleavage was determined as 0.29.

With G52C A57G U78C, the self-cleavage came to 1.11.

In the case of A57U G63A U66A, the self-cleavage amounted to 0.3.

Take A56G U66C U78C: the self-cleavage was determined as 0.19.

In the case of U54A A56G A75G, the self-cleavage was 0.65.

On to A56U U69C A77G, for which the self-cleavage was 0.42.

Turning to U58C A64G U69G, the self-cleavage stood at 0.28.

Consider U54C A65G U67C, for which the self-cleavage stood at 0.31.

U54C U69C U80A: the self-cleavage was determined as 0.82.

In the case of G52C U54C U72C, the self-cleavage came out at 1.15.

Regarding C59A U69C U78C U80C, the self-cleavage turned out to be 0.42.

As for U60C A64G A75U U78C, the self-cleavage was 0.21.

In the case of A56G G63U U67A U72C, the self-cleavage amounted to 0.46.

Consider U58C U60C A65G, for which the self-cleavage came out at 0.21.

For the variant A56C A65C U78C, the self-cleavage is 0.06.

For the variant U51C U58C U78G, the self-cleavage turned out to be 0.31.

Take U60C A77G U80A: the self-cleavage was 0.71.

Regarding C59A A64U U74C, the self-cleavage came out at 0.16.

Take U54G U60C A77G: the self-cleavage stood at 0.4.

Regarding A56U U69C U78C U80A, the self-cleavage turned out to be 0.41.

As for C59A U67C U69C, the self-cleavage is 0.11.

In the case of C59U U69A U80A, the self-cleavage was 0.7.

Regarding U54A U69A A75U, the self-cleavage stood at 0.57.

Turning to A57G C59U U69C, the self-cleavage came out at 0.57.

Consider A56G C59A U78C, for which the self-cleavage amounted to 0.09.

Regarding G53A U58A C81A, the self-cleavage stood at 0.36.

In the case of U60A G63A U78C, the self-cleavage was 0.61.

With C59A U60C U72A C81G, the self-cleavage was 0.26.

C59U A64G U74A: the self-cleavage was 1.18.

In the case of A56U A65G U69A, the self-cleavage is 0.34.

For the variant U60A U69C G70A C71U U72C, the self-cleavage was 0.32.

As for U60C U66C A77C U78C, the self-cleavage is 0.41.

For the variant U54G A57G U80C, the self-cleavage came out at 0.54.

Regarding A56U U58C G73A, the self-cleavage was found to be 0.46.

In the case of G53C U67C U72C, the self-cleavage was determined as 0.47.

Regarding A56U A57G G61U A64G U67C, the self-cleavage was determined as 0.12.

On to A57G A65G U67C, for which the self-cleavage stood at 0.19.

With U54C U60G U74A U78A, the self-cleavage stood at 0.71.

In the case of A56U U60A C62G U78A, the self-cleavage worked out at 0.12.

Turning to A57G C62U A75U A77G, the self-cleavage is 0.14.

In the case of A57G U58C A77U, the self-cleavage amounted to 0.32.

Take U54A A57G U69A: the self-cleavage worked out at 0.45.

For U54C A65G C68G U78C, the self-cleavage worked out at 0.2.

For A56G A65G U72G U78A, the self-cleavage came out at 0.48.

For G53U A56G U60C, the self-cleavage was determined as 0.88.

Regarding U51G U67C U80A, the self-cleavage is 0.16.

Turning to U54C A57U C62U A64U A77U, the self-cleavage is 0.05.

As to U60C A64G U69A U80C, the self-cleavage turned out to be 0.27.

Consider U54C A77U U78C U80A, for which the self-cleavage came out at 1.2.

Take U60C A64G A77U: the self-cleavage worked out at 0.34.

Regarding A56G U69A U72A U78C, the self-cleavage stood at 0.79.

As for G52C A65G U72A, the self-cleavage came to 0.6.

With A57G A65G U78C, the self-cleavage worked out at 0.45.

For the variant U58A U66C U72C U74A, the self-cleavage stood at 0.18.

With U54C U67C G73A U78C, the self-cleavage stood at 0.13.

For A56G C62G A64U A77U, the self-cleavage is 0.53.

Consider U54C U66C U74C A77G, for which the self-cleavage was determined as 0.33.

Regarding G53C A64G U76A, the self-cleavage turned out to be 1.12.

Regarding A57G A65U U72C, the self-cleavage was 0.27.

Consider U60C A64G U69C U74C, for which the self-cleavage was determined as 0.38.

With U51G U76C U78C, the self-cleavage is 1.04.

For the variant U54A U58C U66C U69C U74G, the self-cleavage worked out at 0.36.

As to U58C U72C U74A C79A, the self-cleavage came to 0.76.

Regarding U54A A65G U72A, the self-cleavage amounted to 0.42.

In the case of U51C U74G U80C, the self-cleavage worked out at 1.26.

As for U58A U67A U69C U72A, the self-cleavage was 0.14.

Take U54A U58C C71U A75U U78C: the self-cleavage worked out at 0.59.

On to A57G U58C U60A A65C U67C, for which the self-cleavage was 0.16.

Consider U54C C68A U69A, for which the self-cleavage turned out to be 0.26.

Turning to U60A U69A C81A, the self-cleavage came to 0.39.

For the variant G53A A57G U69C U72C A77U U80C, the self-cleavage was 0.47.

As to U51C U60C G63U, the self-cleavage turned out to be 0.39.

With U54C A64G A77G, the self-cleavage turned out to be 0.59.

For the variant G52A A65G U67C C71U, the self-cleavage worked out at 0.06.

Consider U54C U58A A65G U69A, for which the self-cleavage is 0.17.

Turning to U54C U58C U72A, the self-cleavage stood at 0.17.

Consider U54C A65G U74C A77U, for which the self-cleavage came to 0.77.

Take U54A A56U U76A: the self-cleavage was found to be 0.6.

For the variant A56U A64U C71U A75G, the self-cleavage worked out at 0.14.

Take U54C U78C U80C: the self-cleavage came out at 0.75.

Turning to U54G U69A U78C, the self-cleavage stood at 0.39.

Turning to C59A U76A U80C, the self-cleavage worked out at 0.25.

In the case of G55A A57G U72C, the self-cleavage was found to be 0.91.

For the variant U58A C62A A64U U74A U80C, the self-cleavage came out at 0.21.

Take A56G C59U A64G: the self-cleavage worked out at 0.37.

Turning to G55A C62U U66C C79A, the self-cleavage turned out to be 0.17.

Consider U54C A57G U72A, for which the self-cleavage is 0.69.

On to U54C A57G U72C, for which the self-cleavage stood at 0.81.

For U60C C62U U72C, the self-cleavage came to 0.34.

As to U51C U60A A64G, the self-cleavage is 0.21.

As for U60C A64G U72A U74C, the self-cleavage stood at 0.28.

With A56U U67A U80C, the self-cleavage was 0.31.

Take U58C U72A U80G: the self-cleavage amounted to 0.27.

As to A56U A64G A77G U80C, the self-cleavage came out at 0.54.

For the variant U54C U60A A65G U80C, the self-cleavage was found to be 0.3.

Consider U58C U60G U67C C79A, for which the self-cleavage turned out to be 0.35.

Consider U51C U58C U66C, for which the self-cleavage is 0.19.

Take A57G U67C U78C: the self-cleavage amounted to 0.19.

As for U51G U60C U74A, the self-cleavage is 0.54.

For A56G U58C U67C G73A, the self-cleavage is 0.16.

Regarding U58G A64U A75G, the self-cleavage stood at 0.08.

Consider U60A A65G U76C A77U, for which the self-cleavage is 0.42.

For the variant G52A U76C A77G, the self-cleavage was determined as 1.17.

In the case of G53A U60C U78C, the self-cleavage worked out at 0.85.

Consider G53C A64G U69C, for which the self-cleavage was determined as 0.19.

For U58C U67A U69A G70A, the self-cleavage amounted to 0.2.

Take U58C U66C U74C: the self-cleavage was 0.34.

Regarding U54C U58A U74A, the self-cleavage was 0.5.

For the variant G52C U58C U72C, the self-cleavage is 0.63.

For U51C G53A G61C A77G, the self-cleavage was 0.75.

Regarding U60C A64U U78C, the self-cleavage is 0.16.

As to U54C A56C U76C, the self-cleavage stood at 0.45.

For the variant U58A U76A A77G, the self-cleavage was determined as 0.43.

In the case of U58C U74C U78C, the self-cleavage is 0.56.

U54C A56U U76C U80C: the self-cleavage came to 0.58.

U58A U80C C81U: the self-cleavage came out at 0.5.

For A57G U67A U72C, the self-cleavage stood at 0.49.

On to A56U A64U C68A, for which the self-cleavage worked out at 0.37.

Regarding U58C C71A U72G U74C A75U, the self-cleavage was determined as 0.33.

Regarding U58C U78C U80C, the self-cleavage turned out to be 0.76.

Consider G52C A56G U58C U60A, for which the self-cleavage was found to be 0.3.

On to A57U U66C A75U A77G, for which the self-cleavage worked out at 0.36.

On to U51C U60C A65G G73A C81U, for which the self-cleavage came to 0.19.

Regarding U60A A65G U66C, the self-cleavage was determined as 0.31.

A57U U58G U69C U80C: the self-cleavage worked out at 0.14.

Consider G52U A56U A64G, for which the self-cleavage is 0.76.

Consider A56G U69G U80C, for which the self-cleavage was 0.69.

Take U54C A57U U60C U69C: the self-cleavage amounted to 0.18.

For the variant U54C A57G U67A, the self-cleavage was 0.29.

As for U54C A56G U76A A77G, the self-cleavage came to 0.39.

As for U51C U54C C62A, the self-cleavage amounted to 0.3.

As for G55C U60C U72C U74A A75G, the self-cleavage came out at 0.24.

As to A57U U58G U69C, the self-cleavage was found to be 0.16.

Turning to U51C U54C U72G, the self-cleavage came out at 0.62.

Turning to G52U G53C U54C A56C, the self-cleavage was 0.9.

With G53C U72A U74C, the self-cleavage was determined as 1.19.
